Assay results: PubChem BioAssay (NCATS)
Inconclusive results, whose numbers are uncertain, are shown with a selection of clear calls. No potency is given beside an inconclusive call; the fits are too rough. Activity calls are given as the source filed them. The call rests on the fitted dose curve; in most records, active means well fitted inhibition curve with a large enough effect; inconclusive means small, poorly fitted or top-dose-only effect; inactive means no such curve, though single readings can be large or run the other way.

Assay: BET inhibitor-based combinations targeting novel dependencies in MECOM-rearranged (r) AML: OCI-AML3 cell line (AID 2202232); further: nearly all actives have a fitted effect of over 35% in size
Details: CellTiter-Glo luminescence, 48 h; Potency: OCI-AML3 viability; viability (% of control): at 46 µM (top of the series)
Outline: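 A 48 hr incubation preceded viability reading by CellTiter-Glo, with 15 min room-temperature development. Dose series had 11 points; normalization used DMSO and empty wells; AUC was computed and mean-centered per line as Z-AUC.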
Potency means the concentration at half of the fitted maximal effect; tags describe the fitted curve by direction and shape.

SMILES	Potency
C#Cc1cccc(Nc2ncnc3cc(OC)c(OCCCCCCC(=O)NO)cc23)c1	active: 1.05 µM
CNC(=O)c1cc(Oc2ccc3nc(N[C@@H]4CCCC[C@H]4O)sc3c2)ccn1	inconclusive [inhibitor, partial curve, poor fit]
CNc1nccc(-c2cccnc2Oc2cc(C(=O)Nc3cccc(C(F)(F)F)c3)ccc2C)n1	active: 2.35 µM
Cc1coc2c1C(=O)C(=O)c1c-2ccc2c1CCCC2(C)C	inconclusive [inhibitor, partial curve, poor fit]
CCCN1CCN(c2ccc(C(=O)NC3(C(=O)NCC#N)CCCCC3)cc2)CC1	inconclusive [inhibitor, partial curve, poor fit]
CN(C[C@@H]1COCCO1)S(=O)(=O)Nc1ccc2ccc3ncc(-c4cnn(C)c4)cc3c(=O)c2c1	inconclusive [inhibitor, partial curve]
Cc1cc(Nc2nc(N[C@@H](C)c3ccc(F)cc3)c(C#N)cc2F)n[nH]1	active: 0.525 µM
COCCNCCCn1c(C(=O)CF)c(-c2ccc(C)cc2)c2c(N)ncnc21	active: 0.059 µM
COc1cc2ncnc(Nc3cc(Br)c(O)c(Br)c3)c2cc1OC	inconclusive [inhibitor, partial curve]
COc1ccc(-c2cc(C(O)C3CCCCN3)c3ccccc3n2)cc1 (stereo unspecified)	active: 20.9 µM
CN(C)c1ccc(Nc2nc(N)n(C(=O)c3c(F)cccc3F)n2)cc1	active: 23.5 µM
Cc1nc(Nc2n[nH]c3c2CN(C(=O)N[C@H](CN(C)C)c2ccccc2)C3(C)C)c2sccc2n1	active: 0.468 µM

Assay: BET inhibitor-based combinations targeting novel dependencies in MECOM-rearranged (r) AML: MV-4-11 cell line (AID 2202233); further: nearly all actives have a fitted effect of over 45% in size;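 on viability, % of control: plate controls were DMSO for no effect and blank wells for full effect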
Details: MV-4-11 AML viability, CellTiter-Glo luminescence, 48 h; viability, % of control: at 46 µM (top of the series) unless noted
Outline: (§1)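 Each compound is tested in an 11-point concentration series against 500 seeded cells/well for 48 hr. The luminescent viability signal is normalized to DMSO and blank wells, then reduced to AUC and a cell-line-centred Z-AUC.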

SMILES	Potency	viability, % of control
CNC(=O)c1cc(Oc2ccc3nc(N[C@@H]4CCCC[C@H]4O)sc3c2)ccn1	inconclusive [inhibitor, partial curve]	
Cn1c(CNc2ccc(C(=N)N)cc2)nc2cc(C(=O)N(CCC(=O)O)c3ccccn3)ccc21		inactive: 133% [at 0.315 µM]
C[C@@H]1CCN(C(=O)N2CCCC2)C[C@@H]1N(C)c1ncnc2[nH]ccc12	inconclusive [inhibitor, partial curve, poor fit]	
Cc1coc2c1C(=O)C(=O)c1c-2ccc2c1CCCC2(C)C	inconclusive [inhibitor, partial curve, poor fit]	
CN(C)c1ccc(Nc2nc(N)n(C(=O)c3c(F)cccc3F)n2)cc1	active: 4.17 µM	
Cn1ncc(Cl)c1-c1cc(C(=O)NC(CN)Cc2ccc(F)c(F)c2)oc1Cl (stereo unspecified)	active: 11.8 µM	

Assay: BET inhibitor-based combinations targeting novel dependencies in MECOM-rearranged (r) AML: HNT-34 cell line (AID 2202234); further: nearly all actives have a fitted effect of over 35% in size;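 on viability (% of control): plate controls were vehicle wells for no effect and cell-free wells for full effect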
Details: HNT-34 AML viability, CellTiter-Glo luminescence, 48 h; series mostly up to 46 µM
Outline: as §1

SMILES	Potency
C#Cc1cccc(Nc2ncnc3cc(OC)c(OCCCCCCC(=O)NO)cc23)c1	active: 0.934 µM
CNC(=O)c1cc(Oc2ccc3nc(N[C@@H]4CCCC[C@H]4O)sc3c2)ccn1	inconclusive [inhibitor, partial curve, poor fit]
CNc1nccc(-c2cccnc2Oc2cc(C(=O)Nc3cccc(C(F)(F)F)c3)ccc2C)n1	inconclusive [inhibitor, full curve]
CNC(=O)c1cc(Oc2ccc(NC(=O)Nc3ccc(Cl)c(C(F)(F)F)c3)cc2)ccn1	active: 10.5 µM
Nc1ccccc1NC(=O)c1ccc(CNc2nccc(-c3cccnc3)n2)cc1	active: 1.86 µM
C[C@@H]1CCN(C(=O)N2CCCC2)C[C@@H]1N(C)c1ncnc2[nH]ccc12	active: 16.6 µM
Cc1cc(Nc2nc(N[C@@H](C)c3ccc(F)cc3)c(C#N)cc2F)n[nH]1	inconclusive [inhibitor, full curve]
Nc1ccn(C2CO[C@H](CO)O2)c(=O)n1 (stereo partly specified)	inactive
COCCNCCCn1c(C(=O)CF)c(-c2ccc(C)cc2)c2c(N)ncnc21	inconclusive [inhibitor, partial curve]
Nc1nccn2c(C3CCC(C(=O)O)CC3)nc(-c3cc4cccc(Cl)c4[nH]3)c12 (stereo unspecified)	active: 1.48 µM
COc1cc2ncnc(Nc3cc(Br)c(O)c(Br)c3)c2cc1OC	active: 18.6 µM
CN(C)c1ccc(Nc2nc(N)n(C(=O)c3c(F)cccc3F)n2)cc1	active: 14.8 µM
Clc1ccc(C(Cn2ccnc2)OCc2c(Cl)cccc2Cl)c(Cl)c1 (stereo unspecified)	active: 26.3 µM
Cc1nc(Nc2n[nH]c3c2CN(C(=O)N[C@H](CN(C)C)c2ccccc2)C3(C)C)c2sccc2n1	active: 1.18 µM
Cn1ncc(Cl)c1-c1cc(C(=O)NC(CN)Cc2ccc(F)c(F)c2)oc1Cl (stereo unspecified)	active: 18.6 µM

Assay: BET inhibitor-based combinations targeting novel dependencies in MECOM-rearranged (r) AML: UCSD-AML1 cell line (AID 2202235); further: nearly all actives have a fitted effect of over 40% in size;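 on viability (% of control): plate controls were DMSO vehicle wells for no effect and blank wells for full effect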
Details: UCSD-AML1 AML cells viability, CellTiter-Glo, 48 h; viability (% of control): at 46 µM (top of the series)
Outline: as §1

SMILES	Potency
Cn1c(CNc2ccc(C(=N)N)cc2)nc2cc(C(=O)N(CCC(=O)O)c3ccccn3)ccc21	inconclusive [inhibitor, single point]
CNC(=O)c1cc(Oc2ccc(NC(=O)Nc3ccc(Cl)c(C(F)(F)F)c3)cc2)ccn1	active: 18.6 µM
Cc1cn(CCN2CCN(c3ccccc3-c3cc(C#N)cc(C(=O)NCCCN4CCCC4)c3)CC2)c2ccccc12	inconclusive [inhibitor, single point]
COC(C)(C)CCn1nc(Nc2c(C)cccc2C)c2cnc(Nc3ccc(OCCN4CCCC4)c(F)c3)nc21	active: 9.34 µM
Nc1ccn(C2CO[C@H](CO)O2)c(=O)n1 (stereo partly specified)	inactive
COCCNCCCn1c(C(=O)CF)c(-c2ccc(C)cc2)c2c(N)ncnc21	inactive
Oc1cc(-c2nc(-c3ccccc3)[nH]c2-c2ccncc2)ccc1Cl	inconclusive [inhibitor, full curve, poor fit]
O[C@@H](COc1cccc2ncccc12)CN1CCN(C2c3ccccc3[C@@H]3[C@H](c4ccccc42)C3(F)F)CC1 (stereo partly specified)	inconclusive [inhibitor, single point]
